Out of some 310,000 compounds screened, about 2,200 (0.71%) showed an effect of 50% or more. The effect is printed as a negative number. The list shows a part of the results.
target: human ether-à-go-go-related gene (hERG) potassium channel (human, UniProt Q12809); assay: primary screen, population patch clamp on CHO cells stably expressing hERG
Sequence (Q12809 whole entry, looked up): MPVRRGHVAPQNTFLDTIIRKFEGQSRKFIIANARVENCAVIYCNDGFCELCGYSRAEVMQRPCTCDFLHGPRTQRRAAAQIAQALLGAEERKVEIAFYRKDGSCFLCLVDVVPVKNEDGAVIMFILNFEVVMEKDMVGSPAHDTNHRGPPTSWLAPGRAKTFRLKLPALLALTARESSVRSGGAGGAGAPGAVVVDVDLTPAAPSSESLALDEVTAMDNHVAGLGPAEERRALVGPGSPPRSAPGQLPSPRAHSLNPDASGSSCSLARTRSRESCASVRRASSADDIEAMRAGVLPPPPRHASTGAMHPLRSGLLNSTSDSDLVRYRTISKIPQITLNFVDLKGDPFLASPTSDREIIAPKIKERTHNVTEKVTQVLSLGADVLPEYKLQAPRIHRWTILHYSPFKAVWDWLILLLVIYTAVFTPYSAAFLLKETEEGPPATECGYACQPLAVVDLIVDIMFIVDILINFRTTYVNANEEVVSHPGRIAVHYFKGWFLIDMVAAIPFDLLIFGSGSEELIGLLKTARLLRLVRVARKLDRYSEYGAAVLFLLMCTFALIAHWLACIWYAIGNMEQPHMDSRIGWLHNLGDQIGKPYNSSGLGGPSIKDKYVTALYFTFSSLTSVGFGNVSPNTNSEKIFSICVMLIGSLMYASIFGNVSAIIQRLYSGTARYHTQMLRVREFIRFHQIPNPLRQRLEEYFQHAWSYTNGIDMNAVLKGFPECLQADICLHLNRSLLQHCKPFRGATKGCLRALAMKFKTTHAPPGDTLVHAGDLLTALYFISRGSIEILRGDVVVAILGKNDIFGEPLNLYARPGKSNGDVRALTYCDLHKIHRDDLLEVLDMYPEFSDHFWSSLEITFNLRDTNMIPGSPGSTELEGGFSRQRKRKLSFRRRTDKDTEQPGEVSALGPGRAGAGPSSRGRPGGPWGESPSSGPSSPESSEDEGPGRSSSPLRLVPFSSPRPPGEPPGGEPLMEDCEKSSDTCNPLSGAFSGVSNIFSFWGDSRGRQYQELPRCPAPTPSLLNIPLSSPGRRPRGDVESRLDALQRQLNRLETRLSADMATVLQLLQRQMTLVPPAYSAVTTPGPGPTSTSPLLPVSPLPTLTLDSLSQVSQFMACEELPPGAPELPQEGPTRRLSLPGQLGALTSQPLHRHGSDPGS

SMILES | hERG current change (%, negative = inhibition) at 1uM [%]
Cc1cc(-c2nnc(SCC(=O)c3ccc(Cl)cc3)o2)no1 | 12.5
O=C(/C=C\c1ccc(-c2cccc([N+](=O)[O-])c2)o1)N1CCOCC1 | 8.02
CC[C@H]1OC(=O)[C@H](C)[C@@H](O[C@H]2C[C@@](C)(OC)[C@@H](O)[C@H](C)O2)[C@H](C)[C@@H](O[C@@H]2O[C@H](C)C[C@H](N(C)C)[C@H]2O)[C@](C)(O)C[C@@H](C)[C@@H]2N[C@@H](COCCOC)O[C@H]([C@H]2C)[C@]1(C)O | 12.8
CC1(C)CC(=O)C(C2(O)C(=O)N(Cc3ccccc3)c3ccccc32)CO1 (stereo not shown) | -11.7
CCOc1ncccc1C(=O)OCc1ccc(Cl)cc1 | -4
Cc1ccc(Nc2ccc(C(N)=O)cc2[N+](=O)[O-])cc1C | 12.6
COc1ccccc1C(C)NC(=O)c1ccc(C)o1 (stereo not shown) | -5.39
CCOC(=O)C1CCCN(/C=C2\SC(=S)N(CC)C2=O)C1 (stereo not shown) | 3.87
C=CCN1C(=O)/C(=C/c2cc(C)n(-c3cccnc3)c2C)C(=O)NC1=S | 10.3
COCC(=O)N/N=C/c1c(C)[nH]n(-c2ccccc2)c1=O | 14.5
CCOc1ccccc1-n1c(O)c(C=NCCCN(CC)CC)c(=O)[nH]c1=O | -5.11
Cn1c(=O)c2c(nc(SCC(=O)NCC3CCCO3)n2Cc2ccc(F)cc2)n(C)c1=O (stereo not shown) | -4.73
O=C(NCC(c1cccs1)N1CCOCC1)c1cc(=O)[nH]c2ccccc12 (stereo not shown) | 10.2
Cc1cc(=O)oc2cc(NC(=O)c3cccc(Br)c3)ccc12 | 11.9
O/N=C/c1ccc2cccc(O)c2n1 | 1.72
O=C1C=C(c2cccc(Br)c2)C[C@@H](c2ccc3c(c2)OCO3)C1 | -0.0166
CCc1nc(Nc2ccc(OC)cc2OC)c2oc3ccccc3c2n1.Cl | 15.8
O=C(COC(=O)/C=C/c1ccc(Cl)cc1)NC1CCCC1 | 3.4
CC1(C)CC(=O)C=C(c2ccc(F)cc2OCc2ccccc2)C1 | 11.8
COC(=O)CNC(c1ccccc1)c1cc(Br)ccc1NS(=O)(=O)c1ccccc1 (stereo not shown) | 2.04
NS(=O)(=O)c1ccc(CCNC(=O)NC2(C(F)(F)F)Oc3ccccc3O2)cc1 | 12
CCCCCCOC(=O)C(C#N)c1nc2ccccc2nc1N1CCCCC1 (stereo not shown) | 7.5

SMILES | hERG current change (%, negative = inhibition) at 1uM [%]
COC(=O)c1cc(S(=O)(=O)NCC2CCN(Cc3ccc(F)cc3)CC2)cn1C | 14.4
Cc1nc(NC(=O)c2ccccc2[N+](=O)[O-])sc1C(=O)N(C)C | 16.4
Cc1noc(C)c1S(=O)(=O)N1CCN(c2ccc(Cl)cc2)CC1 | 4.66
CCCNC(=O)c1ccccc1NC(=O)CN(c1ccccc1OCC)S(C)(=O)=O | 16.2
Cc1ccnc(NC(=O)Cn2c(=O)oc3ccccc32)c1 | 3.73
COc1ccc(OCC(=O)N2CCN(c3cccc(C(F)(F)F)c3)CC2)cc1 | 4.38
COc1cc2ccccc2cc1C(=O)Nc1sc2c(c1C(N)=O)CCN(C(C)C)C2.Cl | 8.92
Cc1ccc(NC(=O)CSc2nnc(-c3ccoc3C)n2CCCN(C)C)cc1Cl | -70.2
CSc1nc(-c2ccco2)nn1C(=O)c1cccs1 | 10.2
COC(=O)C1=C(C)C(c2ccc(OC)cc2OC)NC(=O)N1 (stereo not shown) | 15.3
Cc1cc(C)nc(SCC(=O)N/N=C/c2cccnc2)n1 | 3.77
C=CCNC(=S)Nc1c(N)n(C)c(=O)n(C)c1=O | 14.1
Cc1n[nH]c(=O)c2ccccc12 | 7.19
CCOC(=O)CC1=C(C(=O)OCC)C2(C(=O)N1CC(=O)OC)C(C#N)=C(N)Oc1ccccc12 (stereo not shown) | 12.7
Clc1ccc(OCCn2cnc3ccccc32)c(Cl)c1 | 10.4
O=C(Nc1cccc(S(=O)(=O)NC2=NCCCCC2)c1)c1cc(-c2ccncc2)nc2ccccc12 | 17.9
COc1ccc(S(=O)(=O)N2CCCC2CNC(=O)C(=O)NCc2ccc3c(c2)OCO3)cc1 (stereo not shown) | 11.1
COc1cc2ncnc(NCc3ccco3)c2cc1OC | 4.37
Cc1cccc(NC(=S)N2CCN(S(C)(=O)=O)CC2)c1 | 24.6
COc1ccc(C=O)cc1CSc1ncccc1C(=O)O | 8.6
O=C1C(Cl)=C(Nc2cccc(O)c2)C(=O)N1Cc1ccccc1 | -4.58
Fc1ccc2[nH]c3c(N4CCSCC4)ncnc3c2c1 | 7.72

SMILES | hERG current change (%, negative = inhibition) at 1uM [%]
COc1ccc(CNC(=O)c2cc(C)nn2-c2ccccc2)cc1 | 3.56
O=C(COc1ccccc1)NCC(c1cccs1)N1CCOCC1 (stereo not shown) | -3.89
Cc1ccc2nsnc2c1S(=O)(=O)NC1CC1 | 1.14
Nc1cnc(-c2ccccc2)nc1Cl | 11.6
Cc1ccccc1CSc1nn2c(=O)c(C)nnc2s1 | 10.5
O=C(COc1ccc(Cl)cc1)N1CCN(S(=O)(=O)c2ccc(Cl)cc2)CC1 | -9.15
Cc1ccc(NC(=O)CN(C)C(=O)CSc2ccc3c(c2)OCCO3)cc1 | 0.853
Cc1cccc(Nc2nc(NCc3ccco3)c3ccccc3n2)c1.Cl | 15
Cc1cccc(/C(N)=N/OC(=O)CCCN2C(=O)c3ccccc3C2=O)c1 | 3.24
N#Cc1c(-c2cccs2)cc(-c2ccccn2)nc1N | 1.47
CN(C)c1ncc(CN2CCC(CO)(CCCc3ccccc3)CC2)s1 | 0.511
CCOC(=O)NC(C(F)(F)F)(C(F)(F)F)P(=O)(c1ccccc1)c1ccccc1 | 8.14
COc1ccc(-c2sc3ccc(N4CCOCC4)cc3c2C#CC(C)(C)O)cc1 | 18
CC1(C)CC(=O)C(C=Nc2ccncc2)=C(O)C1 | 10.9
NC(=O)COC(=O)c1cccc2c1-c1ccccc1C2=O | 0.836
COc1ccccc1NC(=O)CSc1ncn[nH]1 | -3.32
O=C(COc1ccccc1O)Nc1ccccc1Cl | 0.797
COC(=O)CCC(=O)N1CCOCCOCCN(C(=O)CCC(=O)OC)CCOCCOCC1 | 9.16
CCN(CC)Cc1c(O)ccc2c(=O)c(-c3ccccc3Cl)coc12 | 4.86
COc1ccccc1Nc1cc2cc(Br)ccc2c(=O)[nH]1 | 18.9
O=C(NCCCN1CCN(c2ccccc2)CC1)Nc1ccccc1C(F)(F)F | -9.64
COc1nc(NCCc2ccc(OC)c(OC)c2)nc(NC(C)(C)CO)n1 | 13.2

SMILES | hERG current change (%, negative = inhibition) at 1uM [%]
COc1ccc(S(N)(=O)=O)cc1C(=O)NCC(C)(C)N1CCCCC1 | 1.27
O=C(COc1ccc(Cl)cc1)Nc1cc(NC(=O)COc2ccc(Cl)cc2)cc(C(=O)O)c1 | 9.91
CNC(=O)c1cc(Oc2ccc(NC(=O)Nc3ccc(Cl)c(C(F)(F)F)c3)cc2)ccn1.Cc1ccc(S(=O)(=O)O)cc1 | 12.6
CCOc1ccccc1CN1C(=O)NC2(CCCCCC2)C1=O | 13.7
O=C(NCC(c1cccs1)N1CCOCC1)c1ccc(Cl)cc1 (stereo not shown) | 3.86
COc1cc2[nH]c(=S)n(-c3ccccc3)c(=O)c2cc1OC | 8.48
CC(=O)N1CCN(C(=O)c2cc(S(=O)(=O)Nc3ccc(S(C)(=O)=O)cc3)ccc2Cl)CC1 | 8.42
Cc1ccc(S(=O)(=O)n2cnc3cc([N+](=O)[O-])ccc32)c(C)c1C | 8.07
Cl.N=c1sccn1Cc1ccccc1F | 11.6
Cc1ccccc1C(=O)N1CCC(C(=O)Nc2ccccc2N2CCCC2)CC1 | -0.981
CCN1CCN(S(=O)(=O)c2ccc3ccccc3c2)CC1 | 3.36
O=C(Nc1ccc(NC(=O)c2cccnc2Cl)cc1)c1cccc(Cl)c1 | 9.44
CC(C)NC(=S)NCc1cccnc1 | 15.8
CCN(CC)CCOC(=O)c1ccc(NC(=O)C2(c3ccccc3)CCCC2)cc1.Cl | -5.55
COc1ccc(Cl)cc1C(=O)Nc1ccc(OCC(=O)N2CCOCC2)cc1 | 17.5
Cc1cccc(Cc2nnc(CCC(=O)NCc3cn4ccccc4n3)o2)c1 | 8.62
Cc1cccc(CN2C(=O)N/C(=C/c3ccc(C)s3)C2=O)c1 | -0.804
COc1ccc(/C=C2\SC(=S)N(N3C(=O)CCC3=O)C2=O)cc1O | 8.99
O=C(c1sc2ccccc2c1Cl)N(Cc1ccccc1Cl)C1CCS(=O)(=O)C1 (stereo not shown) | 2.5
Cc1ccc(C(=O)NC2CCN(C(=O)Nc3ccccc3Cl)CC2)cc1 | 8.78
CCn1c(SCC(=O)c2cc(C)n(-c3ccc(C(=O)OC)cc3)c2C)nnc1-c1cccnc1 | 1.88
C=CCN1C(=NC(=O)COc2ccccc2)SC2CS(=O)(=O)CC21 (stereo not shown) | 17.5

From paper PMC4336329 (PLoS ONE, 2015)
